From PubChem BioAssay AID1963576 (National Center for Advancing Translational Sciences (NCATS), 2024)
Screen size: about 46,000 compounds; about 60 (0.1%) were called active. Not shown: some 3% with an inconclusive outcome. Calls come from the whole dose curve; as a rule, active = well fitted inhibition curve with a large enough effect; inconclusive = small, poorly fitted or top-dose-only effect; inactive = no such curve, though single readings can be large or run the other way. The list shows a part of the results.

Assay: Primary qHTS assay for Inhibitors of ovarian cancer metastasis using an organotypic tumor microenvironment (TME) model.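 For activity change, negative = inhibition: plate controls were DMSO wells for no effect and tomatine positive control wells for full effect.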 Note: nearly all actives have a fitted effect of over 65% in size.
Settings: SKOV3ip1-GFP adhesion/invasion on 3D omental model, fluorescence; series mostly up to 45.8 µM; activity change, negative = inhibition: at the top concentration
Summary of the method: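 A 3D layer of primary human omental fibroblasts, mesothelial cells, fibronectin and collagen I, grown 48 hr, received SKOV3ip1-GFP cells in serum-free medium plus compounds at 0.36-46 umol/L. After 2 hr RT and 16 hr 37 C, fixed adherent GFP cells were counted; normalized to DMSO and tomatine.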

Activity change, negative = inhibition, inactive:
CN1C(C(=O)Nc2ccccn2)=C(O)c2sccc2S1(=O)=O -15%, COc1ccc(CCNC(=O)Cn2c(=O)n(-c3cc(OC)c(OC)c(OC)c3)c(=O)c3ccccc32)cc1OC 2.02%, CCOc1ccc(CCNCc2c(C(=O)O)n(Cc3ccc(C)cc3)c3cc(OC)ccc23)cc1 -23.5%, CC(C)C(C)C=CC(C)C1CCC2C3=CC=C4CC(O)CCC4(C)C3CCC21C (centres undefined) -5.41%, CCn1cc(C(=O)NCCCN(CC(C)C)CC(C)C)c(=O)c2cc(S(=O)(=O)N(C)C3CCCCC3)ccc21 4.08%, COc1ccc(NC(=O)CCc2nnc3n(C)c(=O)c4sccc4n23)cc1Cl 0.314%, O=C(NCc1ccccc1Cl)c1cnc2sc(N3CCOCC3)nn2c1=O -2.11%, Cc1ccc(S(=O)(=O)c2nc(-c3ccccc3Cl)oc2N2CCCCCC2)cc1 -11%, CCc1ccc(NC(=O)C(=O)NCC(c2ccc3c(c2)OCO3)N2CCOCC2)cc1 (centres undefined) 0.551%, COc1ccc(-c2cc(C(=O)Nc3ccn(Cc4ccc(C)cc4)n3)no2)cc1OC -3%, COc1ccc(C2=NS(=O)(=O)N(C)C(C(=O)NCc3ccccc3)=C2)cc1OC -3.91%, COc1cc2oc(=O)c(CC(=O)N3CCCCC3)c(C)c2cc1OC 28.4%, COc1cccc(C(=O)Nc2ccc(-c3nc4ccccc4s3)cc2Cl)c1 1.91%, CCn1c(=O)n(-c2ccc(F)c(Cl)c2)c(=O)c2c3c(sc21)CN(C(C)=O)CC3 -0.655%, CCOC(=O)c1nc(N2CCN(c3ccc(F)cc3)CC2)c2c(C)noc2n1 0.658%, COc1ccc(-c2csc3nc(-c4ccc(F)cc4)oc(=O)c23)cc1 2.2%, Cc1ccc(C)c(CSc2cn(CC(=O)N3CCCCCC3)c3ccccc23)c1 -1.23%, COc1cccc(N2C(=O)CSC23C(=O)N(Cc2ccccc2)c2ccccc23)c1 (centres undefined) 18.9%, CC[C@H]1CN2CCc3cc(OC)c(OC)cc3[C@H]2C[C@@H]1C[C@@H]1NCCc2cc(OC)c(OC)cc21 8.37%, COc1ccc(C[C@@H](C)[C@@H](C)Cc2ccc(OC)c(OC)c2)cc1OC 16.5%, CCOC(=O)c1ccccc1NC(=O)CN1C(=O)CC(c2ccco2)Sc2ccccc21 (centres undefined) -4.08%, Cc1ccc2c(c1)sc1nc(-c3cc4ccccc4oc3=O)cn12 1.43%, COc1ccc(N2CCN(c3c4c(nc5nncn35)CCC4)CC2)cc1 2.49%, COc1ccc(NC(=O)C(=O)NCC(c2ccc3c(c2)OCO3)N2CCN(C)CC2)cc1 (centres undefined) 15%, Cc1ccc(C(=O)Nc2ccc(C(=O)OCc3cc(=O)n4nc(C5CC5)sc4n3)cc2)cc1 4.04%, Cc1oc(-c2ccc(Cl)cc2)nc1Cn1c(=O)cc(C)c2c(C)nn(-c3cccc(F)c3)c21 -8.73%, CC(=O)Nc1cccc(NC(=O)CSc2cn(CC(=O)N(C(C)C)C(C)C)c3ccccc23)c1 -6.83%, CCc1ccccc1NC(=O)CSc1ncc(S(=O)(=O)c2ccccc2)c(N)n1 9.19%, COc1ccc(CCNC(=O)c2cc(Nc3cc(C)cc(C)c3)nc3ccccc23)cc1OC -18.2%, CC(=O)c1cccc(NC(=O)c2cccn2-c2nnc(N3CCCCC3)s2)c1 20%, COc1ccccc1Cn1c(CNS(=O)(=O)c2ccccc2Cl)nc2cccnc21 -7.36%, CCOc1ccc(NC(=O)c2cc3c(n(-c4ccc(OC)cc4)c2=O)CC(C)(C)CC3=O)cc1 3.19%, O=C(NCCCN1CCN(c2cccc(Cl)c2)CC1)Nc1ccccc1C(F)(F)F -7.38%, CCN(c1cccc(C)c1)S(=O)(=O)c1ccc2c(c1)NC(=O)CCS2 4.8%, CCN(CC)C(=O)Cn1cc(SCC(=O)Nc2ccccc2F)c2ccccc21 -4.14%, CCOC(=O)c1ccc2c(c1)N(CC(=O)Nc1ccc(C)cc1C)C(=O)c1ccccc1S2 20.2%, CCOC(=O)Cn1c(=O)oc2cc(S(=O)(=O)N3CCN(c4ccccc4F)CC3)ccc21 5.33%, CNc1nc(-c2ccc3c(N)n[nH]c3c2)cc(N2C[C@@H](C(=O)NC3CCCCC3)CC[C@@H]2C)n1 -27%, CC(C)NC(=O)CC(=O)Nc1ccc2nc3n(c(=O)c2c1)CCCCC3 21.3%, CCOc1ccccc1NC(=O)C(NS(=O)(=O)c1ccc2c(c1)CCC(=O)N2)c1ccccc1 (centres undefined) 1.57%, O=C(c1ccc(F)cc1)N1CCC(c2nc3ccccc3o2)CC1 20.2%, CSc1cccc(NC(=O)C2CCN(c3ncnc4c3nc3n4CCCCC3)CC2)c1 -1.74%, Cc1nn(C(=O)COc2ccccc2)c(C)c1Sc1ccccc1 -9.81%, CCOc1ccc(CC(=O)NCCc2csc(-c3ccc(C(F)(F)F)cc3)n2)cc1 0.146%, CCCCOc1ccc(C(=O)N2CCC(c3nc4ccccc4o3)CC2)cc1 -23%, CCOC(=O)c1ccc(NC(=O)C2=C(C)Nc3nc(SCc4ccc(Cl)cc4)nn3C2c2ccc(C)cc2)cc1 (centres undefined) 6.34%, O=C(NC1CCOCC1)c1ccc(-c2cc(-c3cn[nH]c3-c3ccccn3)ccn2)cc1 -24.8%, CC(C)(C)c1ccc(Oc2nc3ccccn3c(=O)c2/C=C(\C#N)c2nc3ccccc3[nH]2)cc1 0.606%, COc1ccc(CNC(=O)c2ccc3c(c2)N(C)C(=O)C2CCCCN32)cc1OC (centres undefined) -0.306%, COC(=O)c1sc2cccc(F)c2c1S(=O)(=O)N1CCN(c2ccccc2OC)CC1 -25.8%, COc1ccc(OC)c(NC(=O)CSc2nc(-c3ccccc3C)nc3cc(=O)[nH]n23)c1 -25.2%, CC(NC(=O)c1nn(C)c2c1CSc1ccccc1-2)c1ccccc1 (centres undefined) -10.7%, CC1CCN(C(=O)CN2CCSc3ccccc32)CC1 -38%, COc1ccc(CNc2ccc3cc(S(=O)(=O)N4CCCCC4)ccc3n2)cc1 2.76%, O=C(Cc1ccccc1)Nc1c(C(=O)N2CCN(c3ccc(F)cc3)CC2)oc2ccccc12 -6.57%, COc1cc(OC)cc(C(=O)N2CCC(c3ccncc3)CC2)c1 1.68%, O=C(CCS(=O)(=O)c1cccs1)Nc1ccc(C(=O)Nc2cccc(Cl)c2)cc1 6.9%, CCC(=O)N1CCCc2cc(S(=O)(=O)N3CCC(C(=O)Nc4ccc(F)c(F)c4)CC3)ccc21 -10.4%, CC(=O)c1cccc(NC(=O)CCCN2C(=O)COc3ccc(C)cc32)c1 7.56%, CCOc1ccc(C(=O)Nc2nnc(S(=O)(=O)N(CC)c3ccccc3C)s2)cc1 -0.457%, O=C(NCCc1ccccc1)c1ccc2c(c1)CCN2S(=O)(=O)c1ccc(Br)cc1 5.16%, Cc1ccc(-c2cc(NC(=O)C(C)Oc3ccc(C)c(C)c3)on2)cc1 (centres undefined) -20.1%, O=C(NCCSCc1c(F)cccc1Cl)C1CCN(S(=O)(=O)Cc2ccccc2)CC1 -12.7%

outcome, inactive:
CCOc1ccc(NC(=O)c2cc(S(=O)(=O)N3CCCCC3)c[nH]2)cc1, COc1cccc(CNc2nc3c(-c4ccccc4)nnn3c3ccccc23)c1, COc1cccc(NS(=O)(=O)c2ccc3[nH]cc(C(=O)NCCc4ccccc4)c(=O)c3c2)c1, CN(Cc1ccccc1)C(=O)CSc1nc2ccsc2c(=O)n1-c1ccc(F)cc1, CCc1ccccc1NC(=O)Cn1c(=O)n(CC2CCC(C(=O)NCCc3ccccc3)CC2)c(=O)c2ccccc21 (centres undefined), O=S(=O)(c1ccccc1F)N1CCC(Oc2ccc(-n3cnnn3)cc2)CC1, COc1cccc(N2C(=O)N(Cc3ccc(C#N)cc3)c3ccccc3S2(=O)=O)c1, COc1ccc(-c2noc(-c3ccc(NCc4cccnc4)c([N+](=O)[O-])c3)n2)cc1, CCC(=O)N1CCc2cc(Br)cc(S(=O)(=O)CCC(=O)Nc3ccc(C)c(C)c3)c21, Cc1ccc(Cl)c(NC(=O)Nc2csc3c2CCCC3)c1, CCS(=O)(=O)N1CCC(n2c(C)nc3cccnc32)CC1, COCCNC(=O)c1ccc(-n2c(-c3ccccc3)cc3c2CCCCC3)cc1, COc1ccc(NC(=O)CCCc2nnc3n(CCC(C)C)c(=O)c4sccc4n23)c(OC)c1, CCc1ccccc1NC(=O)Cn1nnc(-c2nc(-c3ccc(C)cc3)no2)c1N, CCn1cc(C(=O)N2CCN(c3ccc(F)cc3)CC2)c(=O)c2cc(S(=O)(=O)N3CCOCC3)ccc21, CCOc1cc(CNC(=O)CCCn2c(=O)c3cccn3c3cccnc32)cc(OCC)c1OCC, O=C(NC1CC(=O)N(c2ccccc2)C1)c1ccc(Br)o1 (centres undefined), Cc1cccc(N(CC(=O)NCCSCc2ccc(Cl)cc2)S(C)(=O)=O)c1C, COc1cccc(CNC(=O)C2CCN(c3nn4c(=O)cc(C)nc4s3)CC2)c1, Cc1c(Cl)cccc1Nc1nn2c(=O)c3ccc(C(=O)NCCc4ccccc4)cc3nc2s1, O=C(COCc1cc(-c2cccs2)on1)Nc1cccc(Cl)c1Cl, COc1ccc(NC(=O)CN2C(=O)COc3ccc(S(=O)(=O)Nc4ccccc4)cc32)cc1OC, O=C(NC1CCCCCC1)c1cc2c(Cl)nc3ccccc3c2s1, O=C(c1ccc2c(c1)N(Cc1ccc(Cl)cc1)C(=O)c1ccccc1S2=O)N1CCN(c2ccccc2F)CC1 (centres undefined), COc1ccc(-c2nc(C(N)=O)c3c(n2)n(-c2ccccc2OC)c(=O)n3C)c(OC)c1, O=C(CCC(=O)N1CC2CCCN2c2ccccc21)NCc1ccccc1 (centres undefined), O=C(Nc1ccc(SC(F)F)cc1)c1cc(-c2cccs2)on1, Cc1ccc(C)c(NC(=O)CN2C(=O)CSc3nc(C)cc(C)c32)c1, COc1ccc(N2CC(c3nc(-c4cc(OC)c(OC)c(OC)c4)no3)CC2=O)cc1Cl (centres undefined), Cc1cc(C)c2c(=O)c3c(oc2c1)C(=O)N(Cc1ccc(F)cc1)C3c1cccc(O)c1 (centres undefined), COc1ccccc1CNC(=O)CN1C(=O)CSc2c1c(C)nn2-c1ccccc1
